# Test results as given in the supplement of paper PMC3334620.
# In all, about 33,000 sequences were measured (“E-score (-0.5 to 0.5)”: median about -0.017, highest 2% from about 0.3 on). The list shows a part of the results.
# Molecular target: T1, Sut1 (UniProt P53032)
# T1 sequence: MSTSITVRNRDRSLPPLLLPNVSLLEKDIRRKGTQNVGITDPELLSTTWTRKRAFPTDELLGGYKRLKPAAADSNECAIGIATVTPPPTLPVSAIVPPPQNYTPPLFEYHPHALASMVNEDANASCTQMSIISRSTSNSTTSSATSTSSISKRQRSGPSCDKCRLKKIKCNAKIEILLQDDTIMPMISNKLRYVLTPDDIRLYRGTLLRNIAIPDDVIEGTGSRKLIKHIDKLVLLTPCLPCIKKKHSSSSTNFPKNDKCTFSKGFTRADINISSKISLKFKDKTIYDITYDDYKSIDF
# Experiment: PBM E-score (8-mer binding enrichment) (E-score (-0.5 to 0.5)); higher = stronger / more preferred TF binding; most listed sequences are background and not binding sites
# Settings: protein concentration: 200 nM; construct: GST-full length
# Description: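 Universal 'all 10-mer' protein binding microarrays (Agilent AMADID 015681) probed with GST-tagged S. cerevisiae TFs (full-length or DBD) made by in vitro transcription/translation (PURExpress), about 100-200 nM. Bound TF was detected with fluorescent anti-GST. Each ungapped 8-mer (which stands for itself and its reverse complement) is scored by the PBM enrichment score (E-score), a modified Wilcoxon-Mann-Whitney statistic from -0.5 to +0.5, computed with the Universal PBM Analysis Suite. Scale: above 0.35 generally sequence-specific binding.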
row,Sequence,PBM E-score
1,CAAACGAG,-0.0985
2,CTCTAATC,0.0258
3,CACGAGTC,-0.0666
4,GACCGGAC,0.364
5,CAGCGGAG,0.242
6,ACCTTCGC,-0.0159
7,GCTGATGA,-0.05
8,GCCATTCA,0.0474
9,AGCTGCGA,-0.115
10,ATTAAGGA,0.0804
11,ATTCTTTG,0.0841
12,CTAGTGAA,-0.037
13,ATCCCCAC,-0.285
14,ACCCAAAC,0.0569
15,ATGTCTTC,-0.153
16,CCAGGGAC,-0.304
17,CTTGCGCC,-0.243
18,CAGGTCCA,-0.231
19,CCGACTAC,0.137
20,ATCGACGA,-0.0527
21,CACCACTG,-0.159
22,ACGAAGCG,-0.184
23,AGTACGTA,-0.0384
24,CAAAGTGG,-0.229
25,GACCGACC,-0.076

row,Sequence,PBM E-score
1,GTGACCGA,0.0113
2,GGTAGACC,-0.101
3,AGCGCCCT,-0.128
4,AAGAGGCC,-0.0799
5,GTTCGTGA,-0.119
6,CGCTGTTC,-0.0964
7,CTGTTTGA,-0.076
8,GACTTCGC,0.0243
9,AGTCCCTG,-0.256
10,CCCTAGAC,-0.0768
11,AATGTAGG,-0.0801
12,AGCTGTGG,-0.332
13,GCGCGAAA,0.0601
14,ACCGAACG,0.105
15,GCTCGGAA,0.165
16,CCTAAACG,-0.0454
17,GCTCCCTA,-0.123
18,GTAAAAAC,0.0758
19,AGTTTTAA,0.341
20,AGGCTACG,-0.345
21,ATGGATCA,-0.063
22,CCTGTGGC,-0.213
23,AAGCCTGG,-0.0734
24,CAAATCCC,0.0494
25,CATATCCA,-0.22

row,Sequence,PBM E-score
1,AACAGGCT,-0.22
2,CACAAGAC,-0.145
3,CTGTCCGA,0.192
4,AGCACAGC,-0.0832
5,AAGAGTAT,0.0381
6,AGGCCGAC,-0.244
7,TTGGCCAA,-0.0764
8,CAGAACAC,-0.125
9,GCGCTAGA,-0.00213
10,TAACTCTA,-0.0161
11,TCGCTAGA,-0.0604
12,AAGGTTCA,-0.028
13,TGGCTTAA,0.124
14,AATACCAC,0.0705
15,ATTGCCAG,-0.102
16,AAGTCAGC,0.0175
17,AGCACTGC,-0.162
18,AAATTTTG,0.143
19,AATTTCGG,0.242
20,ACTGTCCT,0.0413
21,GGTACCAC,-0.235
22,ATTTGGCG,0.123
23,AGACTCGA,-0.0746
24,ATAGTACC,0.204
25,CTCGGCTA,-0.0108

row,Sequence,PBM E-score
1,CTCTGGAC,-0.0873
2,GCATAAGA,-0.0114
3,TTCGCCAA,-0.0854
4,CTGGTACC,-0.149
5,ATGCGGAC,0.245
6,CGTCAATA,-0.0833
7,CATCGGCG,-0.137
8,ACAGTGAC,0.0105
9,GCTTCTCC,-0.111
10,ATAGCGCG,-0.117
11,CCGCCACC,-0.0978
12,ACTCTGCG,0.0171
13,ACACTCTG,-0.0727
14,TAGCCCAA,-0.0663
15,GTGCACAC,-0.15
16,CAACAAAC,0.144
17,CTAATCCA,-0.173
18,CAGAACCG,0.0435
19,GAACTATC,0.0613
20,CGGACCCG,0.285
21,CGGGCTTA,0.0898
22,ACCTCATC,0.0345
23,CGCATTAC,0.0298
24,GCTGCACC,-0.316
25,GAGGCCGC,-0.265

row,Sequence,PBM E-score
1,AACTGTAA,0.192
2,CCCGGAAC,0.129
3,ATCTCATA,0.0781
4,AGAGCTTA,0.00662
5,CTACCATC,-0.0533
6,CGTTCGGC,-0.0654
7,AAAAGAGC,-0.0423
8,CGTAACTA,0.138
9,ATGTAGGA,-0.00883
10,ATCGACAT,0.033
11,CGGTTTTC,0.176
12,AGTATATC,0.12
13,GAAGGCGA,-0.0447
14,ATCATACC,0.16
15,GGCTACCC,-0.233
16,GGATCCGA,0.146
17,ATTATCTA,0.187
18,ACCCGGAC,0.323
19,AAAAAACA,0.313
20,GTTATGCA,0.0236
21,GACATGTC,0.0429
22,CCTGAGAA,-0.115
23,TCAGTCGA,0.016
24,AAGAAACG,0.127
25,ATATACTA,0.305

row,Sequence,PBM E-score
1,CCTGCCTA,-0.0979
2,AGTTGTTG,0.135
3,CAGAGCGG,0.0194
4,CCCGTGTA,0.0488
5,CCACGGAC,0.202
6,CGAGCCAA,-0.0278
7,GTCGCCTA,-0.116
8,AGCGAGCA,-0.0935
9,AATACGCA,0.0344
10,ACGCGGGC,-0.143
11,AGGTATTC,0.133
12,CTCGCTCC,-0.119
13,AAATCAAC,0.0897
14,ACACCAGG,-0.229
15,CGATAATC,0.0974
16,ACGTCACC,-0.0655
17,CAAGTCCC,-0.162
18,GTGGGACA,-0.26
19,ATGTCCAC,0.0574
20,ATCCTATA,0.195
21,CACTGAAA,0.116
22,GACCGTAC,-0.259
23,CATAGCCA,-0.0744
24,AGTCGCTA,-0.145
25,CTAGGCCC,-0.108

row,Sequence,PBM E-score
1,ACCTTCAC,-0.166
2,ATATTATC,0.223
3,GCAAGGGA,-0.24
4,GATTACAC,0.0955
5,AGCGGGTG,-0.281
6,ATAGCACC,-0.101
7,CGCCATAG,-0.152
8,CAGAGTCG,-0.00687
9,CAGCATAG,-0.0608
10,ATGTAAAG,0.0933
11,AGGTCTTA,-0.0325
12,ACGCAATG,-0.195
13,CGGCCATA,-0.19
14,CACGGTGA,-0.0232
15,CTCGGCGC,0.107
16,GAGACCTC,-0.0192
17,ACACACGC,-0.0881
18,AACCGTGA,-0.0718
19,ACCTCGCA,-0.0723
20,AACAGCAA,0.151
21,CGCCAAGC,-0.0568
22,AAGAGACG,-0.0793
